Laboratory results: the supplement of paper PMC8285479
Where a name gives a salt, the structure may show the parent alone. ± gives the standard deviation of the averaged measurements. In all, about 1,900 compounds were measured (“normalised cell viability (NPI; 0 = phenylarsine oxide control, 1 = DMSO control)”: median about 1, lowest 2% from about 0.039 on). Some of the results follow.

Test system: NCI-H1944
Test: normalised cell viability (NPI; 0 = phenylarsine oxide control, 1 = DMSO control) (fraction of DMSO control); NCI-H1944 is a non-small cell lung cancer line; higher = more viable cells (less compound toxicity)
Settings: 6 days
[1] = glucocorticoid arm: hydrocortisone 2.75 uM co-treatment, compound 1 µM
[2] = glucocorticoid arm: hydrocortisone 2.75 uM co-treatment, compound 5 µM
[3] = glucocorticoid arm: hydrocortisone 2.75 uM pre-treated 2 days and continued, compound 1 µM
[4] = glucocorticoid arm: hydrocortisone 2.75 uM pre-treated 2 days and continued, compound 5 µM
[5] = glucocorticoid arm: vehicle, compound 1 µM
[6] = glucocorticoid arm: vehicle, compound 5 µM
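Note: CTB read-out in 384-well plates, mean of triplicate wells, normalised per plate against 1 µM phenylarsine oxide and 0.1% DMSO, compounds added 24 h after seeding.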

Structure (SMILES)	normalised cell viability [1]	normalised cell viability [2]	normalised cell viability [3]	normalised cell viability [4]	normalised cell viability [5]	normalised cell viability [6]
NCC(=O)Nc1ccc(-n2nc(C(F)(F)F)cc2-c2ccc3c(ccc4ccccc43)c2)cc1	1.03 ± 0.01	1.01 ± 0.027	1.02 ± 0.01	1.03 ± 0.021	1.01	0.9867 ± 0.009
CCc1cncnc1N1CCN(Cc2nc3ccc(C(F)(F)F)cc3[nH]2)CC1	1.06 ± 0.015	1.11 ± 0.01	1.04 ± 0.015	1.06 ± 0.04	1.027 ± 0.0058	1.002 ± 0.0068
NS(=O)(=O)c1cc(C(=O)O)c(NCc2ccco2)cc1Cl [Furosemide]	1.002 ± 0.0076	0.9983 ± 0.0029	0.999 ± 0.011	0.995 ± 0.015	0.984 ± 0.002	0.9897 ± 0.0047
NC(=S)c1ccc[n+]([C@@H]2O[C@@H](COP(=O)([O-])OP(=O)(O)OC[C@H]3O[C@@H](n4cnc5c(N)ncnc54)C(OP(=O)(O)O)[C@H]3O)C(O)C2O)c1 (some centres undefined) [Thio-NADP sodium]	1.013 ± 0.0058	1.01 ± 0.026	1.03 ± 0.021	0.998 ± 0.013	1.013 ± 0.0058	1.013 ± 0.0058
CCn1nnc2c(N3CCOCC3)nc(-c3ccc(NC(=O)Nc4ccc(C(=O)N5CCN(C)CC5)cc4)cc3)nc21	0.201 ± 0.0067	0.375 ± 0.015	0.287 ± 0.01	0.543 ± 0.024	0.077 ± 0.01	0.22 ± 0.016
O=C(O)CCC(=O)N1CCC[C@H]1C(=O)O [N-Succinyl-L-proline]	1.01	1.01 ± 0.04	1.01 ± 0.032	1.01 ± 0.016	1.01	1.001 ± 0.0081
N=C(N)NC(=O)c1nc(Cl)c(N)nc1N [Amiloride hydrochloride]	0.9737 ± 0.006	0.966 ± 0.023	0.991 ± 0.0052	0.992 ± 0.025	0.9947 ± 0.0084	1.003 ± 0.0064
CC(C)NCC(O)c1ccc(NS(C)(=O)=O)cc1 (racemic) [(±)-Sotalol hydrochloride]	0.997 ± 0.011	0.995 ± 0.013	1.01 ± 0.026	0.98 ± 0.0046	0.9833 ± 0.0015	0.9843 ± 0.0046
CN(C)C(=O)COC(=O)Cc1ccc(OC(=O)c2ccc(NC(=N)N)cc2)cc1 [Camostat Mesilate (FOY-305)]	0.973 ± 0.0096	0.99 ± 0.034	0.9807 ± 0.0021	1.02 ± 0.026	0.9923 ± 0.0042	0.996 ± 0.013
O=[N+]([O-])c1cccc2c(Br)[nH]nc12 [3-Bromo-7-nitroindazole]	1.017 ± 0.0058	1.02 ± 0.027	1.01	1.01 ± 0.04	0.987 ± 0.0099	0.9907 ± 0.0081
CC(C)C[C@@H]1NC(=O)[C@@H](C(C)C)NC(=O)[C@@H]2CCCN2C(=O)[C@@H](CC(=O)O)NC(=O)[C@@H](Cc2c[nH]c3ccccc23)NC1=O	1.01 ± 0.014	1 ± 0.018	1.02 ± 0.025	1.003 ± 0.0061	0.9943 ± 0.005	1.013 ± 0.0058
CCCCOc1c(C(=O)c2c(F)cc(C)cc2F)c[nH]c2nncc1-2	0.91 ± 0.018	0.988 ± 0.017	0.9857 ± 0.0032	1.02 ± 0.022	0.561 ± 0.04	0.861 ± 0.018
COc1cccc(OC)c1OCCNCC1COc2ccccc2O1 (centres undefined) [WB-4101 hydrochloride]	0.99 ± 0.005	0.9467 ± 0.0064	0.992 ± 0.016	0.998 ± 0.011	0.9793 ± 0.0011	0.98 ± 0.0036
Nc1ccccc1NC(=O)c1ccc(CNC(=O)OCc2cccnc2)cc1 [Entinostat (MS-275)]	1.05 ± 0.015	0.184 ± 0.004	1.023 ± 0.0058	0.302 ± 0.018	0.866 ± 0.026	0.02 ± 0.0035
Nc1ccccc1NC(=O)c1ccc(CNC(=O)OCc2cccnc2)cc1 [Entinostat]	0.925 ± 0.019	0.0313 ± 0.0074	0.962 ± 0.013	0.0766 ± 0.011	0.348 ± 0.03	0.00136 ± 0.00059
O=C1NCN(c2ccccc2)C12CCN(CCCC(c1ccc(F)cc1)c1ccc(F)cc1)CC2 [Fluspirilene]	1 ± 0.011	0.9263 ± 0.009	0.993 ± 0.018	1.01 ± 0.01	1	1.01 ± 0.01
CC(=O)SCC[N+](C)(C)C [Acetylthiocholine chloride]	0.9853 ± 0.0084	0.988 ± 0.011	0.991 ± 0.011	0.989 ± 0.014	0.977 ± 0.011	0.986 ± 0.007
CN(C)CC[C@H](CSc1ccccc1)Nc1ccc(S(=O)(=O)NC(=O)c2ccc(N3CCN(Cc4ccccc4-c4ccc(Cl)cc4)CC3)cc2)cc1[N+](=O)[O-]	0.99 ± 0.018	1.03 ± 0.015	0.994 ± 0.025	1.023 ± 0.0058	1.001 ± 0.009	0.926 ± 0.018
CC(C)COC(=O)OCN1C(=O)CN(CCN2CC(=O)N(COC(=O)OCC(C)C)C(=O)C2)CC1=O [Sobuzoxane]	0.997 ± 0.003	0.992 ± 0.0098	1.03 ± 0.042	1.02 ± 0.027	1.002 ± 0.0076	0.9833 ± 0.0083
Nc1ccc(-c2ccc3ccccc3n2)cc1 [BF-170 hydrochloride]	0.9843 ± 0.0029	0.9947 ± 0.0092	1.01 ± 0.021	0.9853 ± 0.0045	0.9917 ± 0.0042	0.9827 ± 0.0097
COC(=O)[C@@H]1[C@H]2C[C@H]3c4[nH]c5ccccc5c4CCN3C[C@@H]2CC[C@@H]1O [Yohimbine hydrochloride]	1 ± 0.013	1.03 ± 0.015	1.02 ± 0.017	1.01 ± 0.023	1.007 ± 0.0058	1.01 ± 0.015
CN(C)CCSSCCNC(=O)C1CCN(C(=O)CSc2ccc(Cl)cc2)CC1	1.01 ± 0.01	1.04 ± 0.015	1.027 ± 0.0058	1.05 ± 0.01	0.9967 ± 0.0035	0.9967 ± 0.0042
CC(C)C[C@H](NC(=O)[C@H]1O[C@@H]1C(=O)O)C(=O)NCCCCN=C(N)N	1.002 ± 0.0068	1.01 ± 0.012	1.003 ± 0.0061	1.01 ± 0.023	1.007 ± 0.0058	1.003 ± 0.0058
CC1(C)NC(=O)N(c2ccc([N+](=O)[O-])c(C(F)(F)F)c2)C1=O [Nilutamide]	1 ± 0.014	0.9927 ± 0.0046	0.996 ± 0.004	1.04 ± 0.061	1.017 ± 0.0058	1.03 ± 0.021
